From the supplement of paper PMC7826260
This is one part of the list. Cleavage of a single-stranded DNA pool by Rep nickase domains was read by sequencing (1 h at 37 °C, 3 µM enzyme); the outer parts of the 90-letter strands are left off. Numbers give uncut DNA relative to the enzyme-free pool, as log2; the lower, the more was cut; hits are not called. Because reads are shares of a total, they shift together; where an enzyme cuts many sequences, the uncut ones exceed 0.

Experiments:
Assay in all cases: uncleaved DNA left, log2 of reads against the no-enzyme library (log2 ratio); higher = less cleavage (more negative = more Rep cleavage of the k-mer); sequences stand for … in CTCGTCCG…ACCGGAGA
[1] = test system: T1, Rep nickase domain of Muscovy duck circovirus
T1 sequence (Rep 1-111, printed without the tag): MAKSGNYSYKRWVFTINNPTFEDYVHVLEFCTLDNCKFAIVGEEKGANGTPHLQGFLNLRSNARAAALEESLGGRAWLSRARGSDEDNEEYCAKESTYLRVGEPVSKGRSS
Description: (§1)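 A pool of 90-nt single-stranded DNAs with seven random bases just before the constant AC of the nick site (name = the seven bases) was cut by 3 µM recombinant His6-SUMO-tagged Rep nickase domain (300 nM DNA, 50 mM HEPES pH 8.0, 50 mM NaCl, 1 mM MnCl2, 1 h, 37 °C, three replicates). Uncut DNA was amplified and sequenced.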

[2] = test system: T2, Rep nickase domain of banana bunchy top virus
T2 sequence (Rep 1-94, printed without the tag): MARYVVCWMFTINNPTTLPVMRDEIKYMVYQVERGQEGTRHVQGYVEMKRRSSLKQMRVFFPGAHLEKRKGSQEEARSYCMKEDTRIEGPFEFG
Description: as §1

[3] = test system: T3, Rep nickase domain of cabbage leaf curl virus
T3 sequence (Rep 1-116, printed without the tag): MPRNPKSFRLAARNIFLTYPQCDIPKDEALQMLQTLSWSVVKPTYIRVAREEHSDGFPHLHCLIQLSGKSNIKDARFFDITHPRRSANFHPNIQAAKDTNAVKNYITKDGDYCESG
Description: as §1

[4] = test system: T4, Rep nickase domain of chickpea chlorotic dwarf virus
T4 sequence (Rep 1-124, printed without the tag): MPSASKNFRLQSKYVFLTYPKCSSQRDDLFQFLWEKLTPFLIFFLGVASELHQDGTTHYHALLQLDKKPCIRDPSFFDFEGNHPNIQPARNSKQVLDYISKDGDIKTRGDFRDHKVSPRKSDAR
Description: as §1

[5] = test system: T5, Rep nickase domain of faba bean necrotic yellows virus
T5 sequence (Rep 1-98, printed without the tag): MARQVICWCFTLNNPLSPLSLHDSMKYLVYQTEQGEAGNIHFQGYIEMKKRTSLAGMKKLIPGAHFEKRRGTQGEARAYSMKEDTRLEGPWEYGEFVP
Description: as §1

[6] = test system: T6, Rep nickase domain of maize striate mosaic virus
T6 sequence (Rep 1-117, printed without the tag): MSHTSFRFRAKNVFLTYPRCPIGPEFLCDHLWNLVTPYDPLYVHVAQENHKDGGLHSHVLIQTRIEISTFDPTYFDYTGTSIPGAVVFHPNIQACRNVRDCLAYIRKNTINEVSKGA
Description: as §1

[7] = test system: T7, Rep nickase domain of porcine circovirus 2
T7 sequence (Rep 2-116, printed without the tag): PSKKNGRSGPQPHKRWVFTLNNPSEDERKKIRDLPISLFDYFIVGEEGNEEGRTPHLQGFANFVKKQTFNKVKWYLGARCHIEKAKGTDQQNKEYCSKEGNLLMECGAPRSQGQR
Description: as §1

[8] = test system: T8, Rep nickase domain of tomato golden mosaic virus
T8 sequence (Rep 1-124, printed without the tag): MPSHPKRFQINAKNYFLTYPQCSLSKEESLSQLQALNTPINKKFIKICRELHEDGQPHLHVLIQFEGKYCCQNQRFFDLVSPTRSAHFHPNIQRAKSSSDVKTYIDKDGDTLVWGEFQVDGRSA
Description: as §1

[9] = test system: T9, Rep nickase domain of tomato yellow leaf curl virus
T9 sequence (Rep 1-136, printed without the tag): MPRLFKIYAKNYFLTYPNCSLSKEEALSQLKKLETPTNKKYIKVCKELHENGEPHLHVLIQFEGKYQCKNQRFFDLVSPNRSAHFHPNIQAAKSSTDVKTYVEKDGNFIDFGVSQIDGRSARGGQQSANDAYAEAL
Description: as §1

[10] = test system: T10, Rep nickase domain of wheat dwarf virus
T10 sequence (Rep 1-137, printed without the tag): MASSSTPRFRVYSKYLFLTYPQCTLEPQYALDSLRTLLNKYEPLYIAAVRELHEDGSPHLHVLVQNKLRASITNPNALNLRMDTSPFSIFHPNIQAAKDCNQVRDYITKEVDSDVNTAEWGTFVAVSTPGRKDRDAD
Description: as §1

Sequence	uncleaved DNA left (log2) [1]	uncleaved DNA left (log2) [2]	uncleaved DNA left (log2) [3]	uncleaved DNA left (log2) [4]	uncleaved DNA left (log2) [5]	uncleaved DNA left (log2) [6]	uncleaved DNA left (log2) [7]	uncleaved DNA left (log2) [8]	uncleaved DNA left (log2) [9]	uncleaved DNA left (log2) [10]
AAAAGCT	-0.0375	-0.0492	-0.86	-1.81	-0.0394	-0.306	-0.0553	-0.0275	-0.0213	-0.117
TTGAAAA	0.0868	0.177	0.375	0.849	0.12	0.616	0.184	0.294	0.215	0.276
CGCTAAT	-1.73	-0.0682	-0.0236	-0.596	0.151	-0.282	-2.56	0.0474	0.149	-0.0351
GTGGAAG	0.046	0.0754	0.312	0.638	-0.00635	0.314	0.165	0.135	0.159	0.114
TTATTCC	-0.027	-0.129	0.115	-0.293	-0.0732	-0.489	-0.0805	-0.224	-0.0162	-0.0532
GGGTGGC	0.051	0.0641	0.79	1.74	-0.0187	2.1	0.211	0.0246	0.0599	0.0917
CAACATG	0.125	0.126	-0.471	-0.923	0.139	-1.03	0.0715	0.0157	0.14	-0.0933
TGAGTAG	0.0732	-0.0237	-0.528	-0.585	0.0297	-1.21	0.233	0.0926	0.0779	0.0275
AATACGG	0.0204	0.127	0.556	1.38	0.102	1.68	0.202	0.171	-0.0212	0.109
GATATAT	0.135	-0.0081	0.418	0.583	0.0842	1.32	-0.157	0.156	0.158	0.167
TCGACAT	0.0272	0.103	0.797	1.83	0.113	2.2	0.249	0.111	0.129	0.199
CGGTATG	-0.00485	-0.0759	-0.0894	0.17	-0.0365	0.27	-0.00153	-0.0668	0.00406	-0.0807
ACAGGTT	0.0242	-0.0221	-0.073	-0.259	-0.066	0.618	0.0576	0.0571	-0.229	-0.0947
CAGCTAC	0.0335	0.0753	0.00159	-1.64	0.217	-0.201	0.102	0.13	0.12	0.15
ATGAGCG	-0.0728	-0.00529	-0.834	-0.366	-0.0862	-1.13	0.121	-0.0776	0.0704	-0.0478
TCACGGC	0.134	0.0113	0.0581	-0.0182	-0.0567	-0.51	0.0764	-0.0647	-0.027	-0.071
GGTATAA	0.0554	0.00668	0.415	1.13	-0.0602	1.73	0.0835	0.0407	0.0979	0.124
TGTTTGG	0.0312	0.0526	0.0597	0.0637	0.0286	-0.373	0.0837	0.109	0.035	0.12
TTACCTT	-0.0634	-0.0539	-0.338	-2.9	-0.177	-0.266	-1.69	-0.224	-0.0963	-0.255
GCTTTTA	0.0883	0.182	0.181	0.339	0.132	0.946	0.0741	0.0509	-0.0247	0.0633
TTATCGG	-0.0563	-0.0207	0.543	1.55	-0.0197	2.07	0.071	0.061	-0.132	0.0232
CACCAAA	0.128	0.216	0.0789	-0.898	0.163	-0.63	-0.0246	0.274	0.111	0.183
CAGAGCG	-0.071	-0.0709	-0.848	-0.373	0.0185	-1.18	0.0465	-0.0207	0.0505	-0.155
GGAATCA	0.0906	0.146	0.639	1.4	-0.0416	1.96	0.199	0.0454	0.176	0.237
GTCACCC	0.023	0.0764	0.265	0.766	-0.0468	1.43	-0.132	-0.00742	0.0725	0.0307
GTTGTCT	-0.0396	0.0383	0.261	0.605	0.0334	1.1	0.113	0.0843	0.021	0.0258
ACCTGAT	-0.0365	0.184	0.0268	0.61	0.175	0.556	-1.4	0.248	0.0961	0.105
CTTATCC	0.0124	0.103	0.237	0.0944	0.0931	-0.27	0.0452	-0.147	0.129	0.188
GCGGCAT	0.021	0.0891	0.782	1.86	-0.128	2.21	0.16	-0.0781	0.00103	0.0976
AACTTAT	-2.41	-0.923	-0.398	-1.9	-0.0563	-0.571	-4.13	0.0299	-0.162	-0.0904
